Among the data in the RNAGym collection of RNA variant scans (doi:10.7554/elife.90254) are self-cleavage values, retold here.

B1: LINE1-mini (parent)
chain: GGCAGAGCUCAACACAGCGUGGCAAAGUGGCUGUGGCUAGACUGCC

Read counts are not given, so values of variants with three or more changes are uncertain.

The variants in the data set derive from B1. Description: self-cleavage, relative activity (ratio to wild type); higher = more cleavage; in vitro, sequencing; the parent is a self-cleaving ribozyme.
For C10G A14G U20G G29U, the self-cleavage was determined as 0.03.
Consider C10U G19A A25G C45A, for which the self-cleavage was 0.31.
The result for U20A G21A A26C reads 0.69; that for G5A G22C A39C, 0.01; that for A6C G17U C37A G44A, 0.04.
Consider A4C A6G A41U, for which the self-cleavage stood at 0.33.
Turning to G5C G7U A12G G19U G27A U34C C45U, the self-cleavage amounted to 0.07.
The result for C15G C23U A25G U43A C45U reads 0.02; that for U9C G21C C37A U43C, 0.01.
The same measure for G21A U28G G40U: 0.22.
The result for G7U C10U G17A G29C C31U G33C C37G reads 0.
With G7U A14G G29C G33U G44C C46A, the self-cleavage was determined as 0.24.
Take C8A C13A C23A A24U G44C: the self-cleavage came out at 0.15.
The same measure for A16C C18U G19U G29C C31A G33U: 0.04; for G7A G17C U20G G30C: 0.16.
The result for G27U A39G C45G reads 0.51; that for G19C C37G C42G, 0.06; that for A24C A26G G40A C42G, 0.02.
The same measure for G1U U20C C23A G44A: 0.09.
For G2U A4G A11G A26C G33A G35U, the self-cleavage came out at 0.
The same measure for C3G G21C C45U: 0.1; for G5U G7C C8G: 0.43; for G5C G30U G35A: 0.21.
For G2U A12G A25U, the self-cleavage was determined as 0.02.
The result for C10A C15U A26C G27U C31U reads 0.
The same measure for C18A G29A U32C C42U C45A C46U: 0.02.
The same measure for A14C C18A A25G G29U U32C: 0.01; for G2A C15A G27A C31G G40A: 0.17.
Consider G2A C3G G19A A24G A25U C45A, for which the self-cleavage came to 0.68.
On to G2C G7C U32G, for which the self-cleavage worked out at 0.03.
With G2A C13U G19A U34A, the self-cleavage is 0.66.
The result for A12U G22U U28C G36U reads 0; that for U34G U38C G40U, 0.04.
The result for A4C G21A G22A G36C reads 0.17; that for G2A G21A G40A, 0.07.
The result for C13G C18U U20A G29C C31U A39G reads 0.
As for G19C G22U C23G, the self-cleavage came out at 0.61.
The same measure for G7U A11C C18U: 0.04.
The result for A6G A11G G17A U32G G40C reads 0.01; that for C3U C15A C18G G29C G36C C46U, 0.11; that for G17A C18G U28C G29A U34A U43C, 0.07.
The result for A6C C15G G27U G33C G36U G40U reads 0.33.
On to A6G C13U G33C, for which the self-cleavage turned out to be 0.02.
The result for G2C A6C C18U reads 0.13; that for G1C C8A U9A C23A, 0.08.
The result for A12C A14C U43A reads 0.01; that for G1A A12U C13U G33U, 0.09.
The result for G35C U38A C45U reads 0.08; that for C15U C18U G27C C45G, 0.18; that for A6C G7U G40A, 0.28.
As to C15G G17A G27U U32A A39C, the self-cleavage is 0.01.
As for G21C C23A A24C A25U, the self-cleavage is 0.06.
The result for G5A C15G G17U C46U reads 0.07; that for G2A C18G C23G A24U, 0.04; that for G7C G27U C46G, 0.17.
On to A11G C13G A41C, for which the self-cleavage is 0.02.
The result for C13A G21A A26G G27A C31U reads 0.09; that for A26G G30C G33A A39G A41C, 0.02; that for G33C C37A U43A, 0.03.
The result for C3G U28C A41C reads 0.01; that for G35U C45G C46G, 0.03; that for C15A G21A C23G G29C, 0.32.
On to C13U G17C C23G A26C, for which the self-cleavage worked out at 0.03.
The result for A14C G17C G33A reads 0.03.
The same measure for C3A A11U A26C G35U: 0.04; for C8G A12C G44A: 0.01.
For the variant G19U G29A A41G, the self-cleavage worked out at 0.14.
The result for A11C C15A A41U reads 0.05.
The same measure for G2A G19U G44U: 0.83; for G2C U9A G27U: 0.25.
The same measure for G5U G17C G19U A26G: 0; for C13U G22C A39C: 0.02.
Regarding G5U C10A C31U G33U, the self-cleavage was determined as 0.02.
On to C8U C18G U34C A41C, for which the self-cleavage turned out to be 0.
For the variant U20A G21A C23U, the self-cleavage was 0.39.
The same measure for A25U U28G G35A: 0.06.
The result for A4G C8U A24C C37U reads 0.2.
The result for C3A C8U C23U G29C reads 2.62; that for C18A A24U G36C, 0.06; that for C13A U20A G22A, 0.05.
As to G7A A25U C31A, the self-cleavage is 0.07.
The result for G5C C15U A24C reads 0.08.
The same measure for G1C G2C A11G: 0.01; for C10U C15U A16G G19A G27A C42G C46U: 0.05; for C8U G22U G33U U38A: 0.01.
The same measure for G1A C8U C31G: 0.58.
For G5U G22U G27C G33A, the self-cleavage is 0.14.
The result for G5C U20C G27A G44U reads 0.03; that for C15G C23G A41G, 0.02; that for G17U U28A G44A C46U, 0.08.
The same measure for G1U G30C C45G: 0.03; for A14G G27U U32C U34A G35U G36C C46A: 0.13.
The result for C8U A12U C13U A41U reads 0.47; that for A6U A16G G17A, 0.1; that for A12C A16C C18U, 0.05.
Consider A6G C8A U9A, for which the self-cleavage came out at 0.32.
The result for G5U C10A G17A G40U reads 0.03.
For the variant A6C C10A G22A A25C G29C C45A, the self-cleavage worked out at 0.01.
The same measure for C10A U20C C23A U28A G36C: 0; for C3A G30A A39C: 0.07.
The result for U20G G22C C23U C42A reads 0.35; that for G17A G33A G35U, 0.07.
Turning to G1C C8G C37A G44A, the self-cleavage is 0.01.
The result for A4G G36C U38G reads 0.02.
The same measure for G2U G7C G30U: 0.04; for G2C C8A A11U A14U C23A G27C: 0.02; for C15A U20A G30U G33A G36A G44U C46U: 0.06.
The same measure for G1A A11U A16G G40A: 0.04; for G1C A16G C23G: 0; for A24U C37U G40U C42U: 0.12.
Consider C10U G21U A24U C37U, for which the self-cleavage turned out to be 0.03.
The result for G2U A16G G36A C42A reads 0.05; that for G5C G22U G33C C37U, 0.04.
The result for G1A U20G C37U reads 0.02.
In the case of G5U A6G C8G C15A U20C G29U U34C, the self-cleavage came out at 0.04.
The same measure for C8A A14U C18A G30U U43G: 0.62.
The result for A11G C18G G35U G36A G40C reads 0.03.
The result for A25G G35C U43C reads 0.02; that for A4C C10A A24C A26G C45U, 0.01; that for A11G G35U C37G, 0.01.
With G5U A11G C13U G19U G22U, the self-cleavage was determined as 0.03.
The same measure for A12G G22C G27U: 0.04; for G2U A24U G40U: 0.2; for C8U G29A C31U G36U G40A U43C C46U: 0.02.
The same measure for A6C G30U C46G: 0.28; for A4C G35U G44C: 0.05.
The same measure for C8U A26G A39G: 0.02.
As to C8U C15G A25C C37A, the self-cleavage amounted to 0.01.
The same measure for A11G U28A C46G: 0.02.
Consider A4U A6G U43G, for which the self-cleavage turned out to be 0.
The same measure for C3U C8A A12U G17A A26G: 0.07; for G1C C13G C18G G19C G40C: 0.01; for G19U C42U C45A C46A: 0.02.
The same measure for G36C C37A G40U: 0.55.
The same measure for G17C G22C G35C G40C: 0.01; for G2C A14U G40U C42U C46G: 0.11.
Consider G1U C3G U9C G33A, for which the self-cleavage was 0.04.
The same measure for C3G A4C C13A C37U: 1.04.
The result for G1C C8U A14G U28G G44U reads 0.02; that for G1A A16U A25C G29A C42A, 0.04; that for U20G C31G C37G A39C, 0.
Regarding G5C G21U G30A, the self-cleavage came to 0.08.
As for A4G A16C U20G G29U U34C, the self-cleavage was 0.44.
The same measure for G30C U38C G40C C46G: 0.01; for C3U C15A C23U A25G G30U: 0.11; for C3U C10A A26G: 0.05.
The same measure for A16C A25C U28A C42A: 0.07; for C15U C42A U43C: 0.03; for C3U C8G G27U: 0.08.
The result for C13A G36U U38G reads 0.03; that for G30C U32C G44U, 0.06.
Take C3U U34C U38G: the self-cleavage was determined as 0.01.
In the case of G7C A11G A14U G35C, the self-cleavage was 0.03.
As to A4U A12G G19A G27C, the self-cleavage is 0.03.
The result for C8U G17A G36A reads 0.08.
The same measure for A16C C23A G35C: 0.05.
The result for A12U G17A G22A G40A G44C C46U reads 0.01.
Consider A4C C13G G27A G40U, for which the self-cleavage was found to be 0.18.
The result for G7U C8U C18G C45A reads 0.29.
The same measure for G7A A12C A24C: 0.04; for C3A A4C G17C C18U U20A G40C: 0.04; for A24G U43G C45G: 0.02.
The same measure for A11G U32G G35U A41C: 0.01; for C3U A11U U28G U34C G35A: 0.07; for G17C G27U C31U C42U U43G: 0.01.
Consider G2A A6C A11U U43C, for which the self-cleavage came to 0.04.
The same measure for C8U U38A C45A: 0.07.
